# Structures can show the parent of a compound that is named as a salt. ± gives the standard deviation of the averaged measurements. The list shows a part of the results.
# Experiments:
# Conditions in all cases: priming compound concentration 100 µM
# [1] = system: hAMSC donor 1; assay: Hoechst total cell count ratio vs vehicle control; higher = more cells (less toxicity)
# [2] = system: hAMSC donor 2; assay: as above
# [3] = system: hAMSC donor 1; assay: transgenic luciferase activity (RLU/mg protein) fold change vs vehicle control (ratio); higher = more transgene expression
# [4] = system: hAMSC donor 2; assay: as above
# [5] = system: hAMSC donor 1; assay: transfection efficiency (EGFP+ cells / Hoechst count) fold change vs vehicle control (ratio); hAMSC are human adipose-derived mesenchymal stem cells given an EGFP-luciferase plasmid by lipofection; higher = enhanced transfection
# [6] = system: hAMSC donor 2; assay: as above
# 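For Hoechst total cell count ratio vs vehicle control in this document: compound added 30 min before Lipofectamine 3000 lipoplex delivery, triplicate-well means expressed against DMSO vehicle control wells of the same 96-well plate.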
# 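For transfection efficiency (EGFP+ cells / Hoechst count) fold change vs vehicle control in this document: compounds added 30 min before Lipofectamine 3000 lipoplex transfection, triplicate means relative to DMSO vehicle wells on the same plate, luciferase RLU normalized to BCA total protein.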
# 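For transgenic luciferase activity (RLU/mg protein) fold change vs vehicle control in this document: compounds in DMSO added 30 min before Lipofectamine 3000 transfection of pEGFP-Luc in 96-well plates, values are means of triplicate wells over DMSO vehicle wells on the same plate.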
SMILES,Hoechst total cell count ratio [1],Hoechst total cell count ratio [2],transgenic luciferase activity [3],transgenic luciferase activity [4],transfection efficiency [5],transfection efficiency [6]
CN1CCC23CCCCC2C1Cc1ccc(O)cc13 [Dextrorphan D-tartrate],1.77 ± 0.14,1.21 ± 0.14,0.339 ± 0.11,0.685 ± 0.044,1.17 ± 0.38,1.2 ± 0.25
CC(C)c1cccc(C(C)C)c1O [Propofol],1.13 ± 0.18,1.19 ± 0.067,0.577 ± 0.13,1.06 ± 0.097,0.827 ± 0.13,1.03 ± 0.19
COc1cc([C@@H]2c3cc4c(cc3[C@H](O)[C@H]3COC(=O)[C@H]23)OCO4)cc(OC)c1OC [Podofilox],0.766 ± 0.12,1.25 ± 0.17,1.86 ± 1.4,0.617 ± 0.12,0.959 ± 0.16,0.776 ± 0.1
Oc1cc2c(cc1O)[C@H]1c3ccccc3CN[C@@H]1CC2 (racemic) [Dihydrexidine hydrochloride],2 ± 0.23,1.34 ± 0.084,0.347 ± 0.1,0.66 ± 0.16,0.661 ± 0.083,0.6 ± 0.079
O=c1c2ccccc2[se]n1-c1ccccc1 [Ebselen],0.0567 ± 0.036,0.202 ± 0.072,0.701 ± 0.79,0.301 ± 0.26,2.92 ± 2.4,0.156 ± 0.059
C[C@]12CC[C@H](O)CC1=CC[C@@H]1[C@@H]2CC[C@@]2(C)[C@H]1CC[C@]2(C)O [Methylandrostenediol],1.12 ± 0.11,1.32 ± 0.052,2.95 ± 2,1.03 ± 0.2,0.963 ± 0.44,0.903 ± 0.17
c1cncc([C@@H]2CCCN2)c1 [Nornicotine],1.67 ± 0.28,1.02 ± 0.1,1.59 ± 0.63,0.9378 ± 0.0053,0.961 ± 0.13,1.15 ± 0.081
Cc1nnc2n1-c1ccc(Cl)cc1C(c1ccccc1)=NC2 [Alprazolam],1.12 ± 0.093,1.12 ± 0.054,1.23 ± 1.1,1.14 ± 0.31,1.66 ± 0.16,1.44 ± 0.09
COc1ccc(CCN)cc1OC [Homoveratrylamine],1.17 ± 0.054,1.09 ± 0.21,2.5 ± 0.48,0.84 ± 0.26,0.989 ± 0.084,1.81 ± 0.58
CC[C@@H]1/C=C/C=C/C[C@H](C)[C@H](O)[C@](C)(O)C(=O)[C@H](C)[C@@H](O)[C@H](C)C(=O)[C@H](C)[C@@H](O)[C@H](C)/C=C/C(=O)O[C@H]2[C@@H](C)[C@@H](CC1)O[C@@]1(CC[C@@H](C)[C@@H](C[C@H](C)O)O1)[C@@H]2C [Oligomycin A],0.278 ± 0.07,0.283 ± 0.057,0.124 ± 0.1,0.509 ± 0.42,0.721 ± 0.37,0.588 ± 0.31
C=C1C[C@@H]2[C@H](CC[C@]3(C)C(=O)CC[C@@H]23)[C@@]2(C)C=CC(=O)C=C12 [Exemestane],1.38 ± 0.22,0.967 ± 0.19,0.691 ± 0.22,0.885 ± 0.12,0.731 ± 0.36,0.785 ± 0.07
O=C(O)C(Cl)Cl [Dichloroacetic acid],1.11 ± 0.11,1.08 ± 0.076,0.571 ± 0.21,0.858 ± 0.14,1.16 ± 0.37,1.01 ± 0.046
CC(O)(CS(=O)(=O)c1ccc(F)cc1)C(=O)Nc1ccc(C#N)c(C(F)(F)F)c1 (stereo not drawn) [Bicalutamide],1.23 ± 0.074,1.93 ± 0.43,0.627 ± 0.079,0.868 ± 0.12,0.593 ± 0.085,0.818 ± 0.029
CC(C)[C@]12O[C@H]1[C@@H]1O[C@]13[C@]1(O[C@H]1C[C@H]1C4=C(CC[C@@]13C)C(=O)OC4)[C@@H]2O [Triptolide],0.81 ± 0.036,0.258 ± 0.028,0.0038 ± 0.0032,0.0139 ± 0.011,0.0363 ± 0.011,0.259 ± 0.27
O=C1CC[C@@]2(O)[C@H]3Cc4ccc(O)c5c4[C@@]2(CCN3CC2CC2)[C@H]1O5 [Naltrexone hydrochloride],1.27 ± 0.14,1.55 ± 0.18,0.591 ± 0.23,–,0.708 ± 0.19,0.749 ± 0.27
CN1[C@@H]2CC[C@H]1C[C@@H](OC(=O)C(CO)c1ccccc1)C2 (stereo partly drawn) [Atropine],1.44 ± 0.073,1.3 ± 0.28,0.514 ± 0.084,0.879 ± 0.32,0.823 ± 0.096,0.977 ± 0.28
COc1ccc(C(CN(C)C)C2(O)CCCCC2)cc1 (stereo not drawn) [Venlafaxine hydrochloride],1.76 ± 0.33,1.05 ± 0.098,0.907 ± 0.14,0.571 ± 0.16,1.22 ± 0.27,0.93 ± 0.13
C[C@H]1CCC[C@H](O)CCCCCc2cc(O)cc(O)c2C(=O)O1 [Zeranol],1.37 ± 0.23,1.465 ± 0.0051,1.22 ± 1.2,1.31 ± 0.47,0.942 ± 0.24,0.858 ± 0.25
C[N+]1(C)CCCC(OC(=O)C(O)(c2ccccc2)c2ccccc2)C1 (stereo not drawn) [Mepenzolate bromide],1.37 ± 0.15,1.17 ± 0.38,0.525 ± 0.46,–,1.13 ± 0.13,1.14 ± 0.22
CCCCCCCCCOc1ccc2[nH]cc(CCN)c2c1 [5-Nonyloxytryptamine hydrochloride],0.208 ± 0.13,0.357 ± 0.037,0.0145 ± 0.0072,0.000306 ± 5.5e-05,1.09 ± 0.43,0.3 ± 0.17

# From the supplement of paper PMC7238544
